Experimental data taken from the supplement of paper PMC10126150.
Sequences with one replicate were seen in a single cluster, so their values are uncertain.

Test system: ATP
Experiment: switch fluorescence ratio, 500 uM ATP over buffer (Cy3 cluster intensity, sum of 5 cycles each) (fold (ratio)); higher = stronger signal-on switching upon ATP binding; sequences stand for … in TCGTCGGCAGCGTCAGATGTGTATAAGAGACAGTTTTTTTTTTTTTTTTTTTTTTTTT…TC
Conditions: aptamer strand: ATP DNA aptamer (quencher-CACCTGGGGGAGTATTGCGGAGGAAGG + anchor), 100 nM annealed; ATP concentration: 500 uM; one replicate
Procedure, shortened: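 Cy3-labelled switching-strand clusters on a modified Illumina MiSeq flow-cell were annealed to 100 nM quencher-labelled ATP aptamer and imaged first in selection buffer, then after 15 min with 500 uM ATP at 22 °C. NaOH stripping and re-annealing separated each of five buffer/ATP cycles, and clusters outside 100-1000 RFU were excluded. The fluorescence ratio sums target-cycle Cy3 intensity over buffer-cycle Cy3 intensity per cluster and averages it per switch-domain sequence.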
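Also: ATP exposure 15 min at 22 °C before imaging.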

| Sequence | switch fluorescence ratio |
| --- | --- |
| GATTGGCATG | 0.973 |
| AAGGCAAGAG | 1.33 |
| GCTTCAGTTT | 0.97 |
| CCAGTGATTC | 1.12 |
| ATCGTCGCGG | 1.01 |
| GAAGTGACGG | 0.946 |
| GTTGTGCAAC | 1.02 |
| GCTGGGGTGT | 1.05 |
| GGGAATAGTA | 1.03 |
| AGCAAGTTCG | 1.01 |
| ATGGAACATA | 1.03 |
| TATTAACAAT | 1.02 |
| AACTGAGTCG | 1.09 |
| CGTCTGTTAC | 2.55 |
| CTGCCTTGTG | 1.03 |
| CTTTACAGTC | 1.04 |
| TATAGTGAAA | 1.03 |
| GTTATGTCTT | 0.983 |
| ATCCCACTCT | 1.01 |
| CGACTACGAG | 1.09 |
| TCGCTGACGG | 0.992 |
| CGCTGGGGAG | 0.993 |
| TCTTTGAGCT | 1.01 |
| GGTGACCGGC | 0.974 |
| AGATGATAAT | 0.992 |
| ATGTAGCTCC | 1.05 |

| Sequence | switch fluorescence ratio |
| --- | --- |
| CCAGTTCTTG | 0.964 |
| TACATTGGGA | 0.956 |
| AGGCTCAGAA | 1 |
| ATTGTAGAAC | 0.973 |
| CACATGTAAG | 0.977 |
| GGCGTCCCAG | 1.03 |
| CGGCTCTGCA | 1.08 |
| GCACGCGCT | 1.09 |
| TGATCTTGCA | 0.967 |
| CGATCTTAGT | 1.03 |
| CCCCGGAGGG | 1.01 |
| CCCCGGTTGG | 1.18 |
| TTCATAGGAG | 1.04 |
| AAACCCCATT | 1.25 |
| CGTCAGGGTA | 1.03 |
| GCGAAGAACC | 0.968 |
| ACCACCCTAA | 1.1 |
| CGAAAAGCCA | 0.975 |
| AGACAATGGG | 0.932 |
| CGCGTTCCCG | 1.05 |
| TGCCAAAGCG | 0.969 |
| CCGAGTTTCT | 1.12 |
| GCTAGTGATA | 1.03 |
| CATCTTATG | 1.05 |
| ATACTGCCTT | 1.09 |
| TCCGTACTTT | 1.05 |

| Sequence | switch fluorescence ratio |
| --- | --- |
| GAAAGAACTC | 1.03 |
| GTGCGCCGTC | 1.04 |
| GGGAGTTGCC | 0.954 |
| AATCTGGATA | 0.996 |
| GTCGAGCCGG | 1.04 |
| CCCTGCTTTC | 2.59 |
| TAGCGTGGCA | 1.05 |
| TTGCAGTGTG | 1.01 |
| TGTAAGAGGG | 1 |
| AATTCCCA | 1.01 |
| ACCCGCACGG | 1.49 |
| ACAAATGCT | 0.986 |
| CTTGGTATCA | 0.97 |
| TTACGGATGC | 1.05 |
| ATATCGATGG | 1.01 |
| GGTCGTTCT | 0.987 |
| CTATCTGATA | 0.957 |
| CGTGGCCTTG | 0.925 |
| GCTGTTACTA | 0.966 |
| CCCTAAGT | 1.02 |
| TTTCTGGGTA | 1 |
| CCCAAATGAG | 0.992 |
| CGGTCGTGAA | 0.952 |
| TTTGATTTTA | 0.967 |
